Measured values taken from paper PMC4336329 (PLoS ONE, 2015).
The whole screen tested about 310,000 compounds, of which about 2,200 (0.71%) showed an effect of 50% or more. The effect is printed as a negative number. This is one part of the list.

target: human ether-à-go-go-related gene (hERG) potassium channel (human, UniProt Q12809); assay: primary screen, population patch clamp on CHO cells stably expressing hERG
Sequence (Q12809 whole entry, looked up): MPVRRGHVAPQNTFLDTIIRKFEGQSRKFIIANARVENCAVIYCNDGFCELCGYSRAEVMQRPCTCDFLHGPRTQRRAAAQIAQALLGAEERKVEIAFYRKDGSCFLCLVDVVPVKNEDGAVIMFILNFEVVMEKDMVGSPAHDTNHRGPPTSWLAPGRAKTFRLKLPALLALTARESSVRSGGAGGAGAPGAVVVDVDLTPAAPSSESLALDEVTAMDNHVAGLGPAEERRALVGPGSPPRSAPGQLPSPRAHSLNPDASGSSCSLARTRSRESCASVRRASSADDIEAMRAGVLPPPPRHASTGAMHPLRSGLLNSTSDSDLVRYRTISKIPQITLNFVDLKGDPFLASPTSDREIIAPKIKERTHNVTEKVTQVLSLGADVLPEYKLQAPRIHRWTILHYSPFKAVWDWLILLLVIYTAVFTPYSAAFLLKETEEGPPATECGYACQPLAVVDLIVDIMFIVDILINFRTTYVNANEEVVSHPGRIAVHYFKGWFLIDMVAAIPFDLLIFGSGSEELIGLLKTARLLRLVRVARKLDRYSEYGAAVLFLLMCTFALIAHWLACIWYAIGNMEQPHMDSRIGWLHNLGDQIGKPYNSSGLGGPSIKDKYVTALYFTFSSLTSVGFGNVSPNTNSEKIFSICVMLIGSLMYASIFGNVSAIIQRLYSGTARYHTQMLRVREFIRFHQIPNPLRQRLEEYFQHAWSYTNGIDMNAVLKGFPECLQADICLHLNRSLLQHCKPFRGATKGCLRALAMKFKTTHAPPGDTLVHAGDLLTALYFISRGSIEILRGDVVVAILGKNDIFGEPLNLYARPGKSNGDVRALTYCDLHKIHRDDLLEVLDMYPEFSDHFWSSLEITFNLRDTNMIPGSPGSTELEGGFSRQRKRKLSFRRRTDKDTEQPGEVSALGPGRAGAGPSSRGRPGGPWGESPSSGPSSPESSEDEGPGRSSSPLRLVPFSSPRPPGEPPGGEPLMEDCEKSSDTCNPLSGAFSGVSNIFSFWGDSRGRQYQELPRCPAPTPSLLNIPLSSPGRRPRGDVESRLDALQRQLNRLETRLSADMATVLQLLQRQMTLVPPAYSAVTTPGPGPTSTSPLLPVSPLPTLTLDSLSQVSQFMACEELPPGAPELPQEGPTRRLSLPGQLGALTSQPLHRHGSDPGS

| Structure (SMILES) | hERG current change (%, negative = inhibition) at 1uM [%] |
| --- | --- |
| COc1ccc(N2CCN(c3ccc4nnc(CCC(=O)Nc5ccc(C)cc5)n4n3)CC2)cc1 | -27.8 |
| Oc1ccccc1/C=N/NC(=S)NC1CC2CCC1C2 (centres unmarked) | 15.7 |
| COc1ccc(C2NC(=O)CS2)cc1OC (centres unmarked) | 4.78 |
| Cn1c(Cc2csc(N)n2)nnc1SC/C=C/c1ccccc1 | 0.144 |
| c1coc(CNc2nc3sc4c(c3c3ncnn23)CCCC4)c1 | 16.6 |
| CCOc1ncccc1C(=O)Nc1nc(SC)ns1 | 8.23 |
| COc1cccc(NC(=O)CCc2nnc3ccc(N4CCN(c5cccc(OC)c5)CC4)nn23)c1 | 13.9 |
| S=C(NCC1CCCO1)N1CCN(c2ccccc2)CC1 (centres unmarked) | 15.4 |
| O=C(N/N=C\c1ccc[nH]1)c1cncc(Br)c1 | 13.6 |
| Cc1ccc(S(=O)(=O)Nc2cc(C)on2)cc1 | 14.5 |
| COc1cc(NC(=O)COC(=O)c2nc3nc(C)cc(C)n3n2)cc(OC)c1 | 1.87 |
| Cc1ccc(S(=O)(=O)Nc2nnc(C3CCCCC3)s2)cc1 | 12.4 |
| CC(=O)c1ccc(-n2nnnc2SCC(=O)NC2CCCCC2)cc1 | 7.29 |
| N#Cc1c(-c2ccc(C(F)(F)F)cc2)cc(-c2ccccc2)[nH]c1=S | 2.72 |
| Cc1ccc(C23CC4CC(CC(C(=O)OCC(=O)N(C)C)(C4)C2)C3)cc1 | 11.5 |
| c1cncc(-c2nn3cnnc3s2)c1 | 10.9 |
| O=C(Cn1nnc2ccccc2c1=O)Nc1cccc(S(=O)(=O)N2CCOCC2)c1 | 1.48 |
| O=C(Nc1ccc(Cl)cc1C(=O)Nc1ccc(Br)cn1)c1ccco1 | 2.46 |
| CN=Cc1c(NC)nc2c(C)cccn2c1=O | 0.708 |
| COc1cc(C(=O)OCC(=O)Nc2cc(C)on2)c([N+](=O)[O-])cc1OC | 10.4 |
| CC(C)COc1ccc(C(=O)Nc2ccc(N3CCOCC3)cc2N2CCOCC2)cc1 | 2.81 |
| O=C(C(O)c1ccccc1)N1N=C(c2ccccc2)CC1(O)C(F)(F)F (centres unmarked) | 19.4 |
| Cc1ccc(Oc2ccccc2)c(NC=O)c1 | 4.03 |

| Structure (SMILES) | hERG current change (%, negative = inhibition) at 1uM [%] |
| --- | --- |
| Cc1occc1C(=O)NCc1ccccc1F | -4.14 |
| Cc1ccc(C)c(CSC2=NCCN2C(=O)c2cccs2)c1 | 11.7 |
| CC(=O)Nc1nnc(S(N)(=O)=O)s1 | 9.34 |
| COc1ccc(NC(=O)CCC(=O)Nc2cc(OC)c(NC(=O)c3ccco3)cc2OC)c(OC)c1 | 18.5 |
| O=C(Nc1ccccc1)C1C(c2ccccc2)C1(Cl)Cl (centres unmarked) | 12.8 |
| Cc1c(N(C)C(=O)c2ccco2)c(=O)n(-c2ccccc2)n1C | 8.4 |
| Cc1noc(/C=C/c2ccco2)c1S(=O)(=O)N1CCC(C(=O)N2CCc3ccccc32)CC1 | 10.8 |
| N#Cc1ccc(NC(=O)COC(=O)CCNS(=O)(=O)c2ccccc2)cc1 | -45 |
| CCc1ccc(Nc2n[n+](-c3ccccc3)c(-c3ccc(N(CC)CC)cc3)s2)cc1.[Cl-] | -9.54 |
| O=C(NC1CCOc2ccccc21)c1ccc(=O)[nH]c1 (centres unmarked) | 18.5 |
| Cc1ccc(N2C(=O)c3cccc(Oc4ccc(Cl)cc4)c3C2=O)c(C)c1 | 7.56 |
| O=C(Nc1cc(N2CCOCC2)ncn1)Nc1cccc2ccccc12 | 15.1 |
| CCc1ccc(S(=O)(=O)N2CCCC(N3CCN(c4ccc(OC)cc4)CC3)C2)cc1 (centres unmarked) | -3.61 |
| CN(C)CCNC(=O)c1csc(Nc2cccc3ccccc23)n1 | -19.7 |
| COc1cc(OC)cc(C(=O)N[C@H](C(=O)OCC(=O)NC(C)c2ccccc2)C(C)C)c1 (some centres unmarked) | 1.91 |
| COc1cccc(C2CCCN2Cc2nc(CCC(C)C)no2)c1 (centres unmarked) | 10.5 |
| CCN1CCN(CCNC(=O)CS(=O)(=O)Cc2nc(-c3ccc(C)cc3)oc2C)CC1 | 14.4 |
| Cc1ccc(CNC(=O)C(C)OC(=O)c2cccs2)cc1 (centres unmarked) | 15.9 |
| O=C(CCCNC(=O)c1ccc(Cl)cc1)NCc1ccccc1F | -0.415 |
| Cc1ccc(C(=O)NC(=S)NNS(=O)(=O)c2ccc(C)cc2)cc1 | 9.78 |
| NC1=NC(=O)/C(=C\c2cc([N+](=O)[O-])ccc2Cl)S1 | -1.77 |
| CC(=O)c1cc(C#N)c(NCc2ccccc2)nc1C | 1.14 |
| O=C(COC(=O)C12CC3CC(CC(O)(C3)C1)C2)NCCc1ccc(Cl)cc1 | 7.03 |

| Structure (SMILES) | hERG current change (%, negative = inhibition) at 1uM [%] |
| --- | --- |
| Cc1cc2cc(CNC(=S)Nc3ccc(OC(F)F)cc3)ccc2n1C | 16.2 |
| CC(C)OP(=O)(c1ccccc1)c1ccccc1 | 3.07 |
| O=C(CC(Cc1ccccc1)C(=O)O)Nc1cccc(C(F)(F)F)c1 (centres unmarked) | 24.2 |
| COc1ccc(CCNC(=O)c2cc(=O)n(C)c(=O)n2C)cc1OC | 4.78 |
| Cc1cc(NC(=O)c2nn3cccnc3c2Cl)no1 | 0.914 |
| O=C(CSc1ccc(Cl)cc1)Nc1ccc(C2SCCS2)cc1 | 12.1 |
| COC(=O)c1nc(N)sc1-c1ccc(OC)cc1 | 14.1 |
| O=C(/C=C/c1cccc(Oc2ccccc2)c1)N1CCOCC1 | 9.95 |
| Cc1nc2ccc(S(=O)(=O)NCC(=O)NCCN3CCCCC3C)cc2s1 (centres unmarked) | 7.96 |
| CCOc1ccc(NC(=O)CN(C)C(=O)Cc2c[nH]c3ccccc23)cc1OCC | -0.702 |
| O=C(NCC(=O)N1CCN(c2ccccc2)CC1)c1ccco1 | 8.26 |
| COc1cc(C(=O)N(C)Cc2cccc(OC)c2OC)ccc1OCC(=O)Nc1cccc(C(F)(F)F)c1 | -0.309 |
| CC(C)c1ccc(C(CC(=O)c2ccc(Cl)cc2)C(=O)O)cc1 (centres unmarked) | -0.641 |
| CCOC(=O)c1nnn(CC(=O)NC(=O)Nc2cccc(CC)c2)c1C(=O)OCC | 13.3 |
| Cn1c(-c2ccc(F)cc2)cnc1SCC(=O)N1CCCc2ccccc21 | -0.573 |
| CCOc1ccc(N(CC(=O)NCCc2ccc(F)cc2)S(=O)(=O)c2ccccc2)cc1 | 9.44 |
| O=C(NCc1ccco1)c1cc2nc(C3CC3)cc(C(F)(F)F)n2n1 | -0.584 |
| CCNCc1nc2cc(Cl)ccc2c(=O)[nH]1.Cl | 11.9 |
| CC1CC(C)CN(S(=O)(=O)c2ccccc2[N+](=O)[O-])C1 (centres unmarked) | 0.0889 |
| O=C(CC1SC(=Nc2ccccc2)N(CCCCO)C1=O)NCc1ccccc1 (centres unmarked) | -8.78 |
| c1csc(-c2noc(CN3CCOCC3)n2)c1 | 12.7 |
| CC(=O)c1ccc(NC(=O)CCCC(=O)c2ccccc2)cc1 | 14.6 |
| CCCNC(=O)COC(=O)c1cc(-c2ccc(OC)cc2)nc2ccccc12 | 4.2 |

| Structure (SMILES) | hERG current change (%, negative = inhibition) at 1uM [%] |
| --- | --- |
| C=CCNC(=O)c1ccc(N(CC=C)S(C)(=O)=O)cc1 | -0.84 |
| O=C(CN1CCN(S(=O)(=O)c2ccc(Cl)cc2)CC1)NC1CCCC1 | -5.16 |
| Cc1ccc(/C=N/NC(=O)c2ccncc2)o1 | 1.99 |
| CCn1cc(Br)c(C(=O)Nc2cccc(SC)c2)n1 | 13.6 |
| CCN1CCN(Cc2ccc(NC(=O)Nc3cccs3)cc2)CC1 | 9.85 |
| CCCCCCCCOC(=O)c1ccc(N)cc1 | 13.8 |
| C=CCn1c2ccccc2c2nnc(SC(CC)C(=O)Nc3sc4c(c3C#N)CCCC4)nc21 (centres unmarked) | 12.3 |
| Cc1ccc(C)c(S(=O)(=O)NCC(c2ccc3c(c2)OCO3)N2CCOCC2)c1 (centres unmarked) | 2.65 |
| Cc1nc(N2CCOCC2)c(C#N)c(C)c1Br | 6.16 |
| Cl.O=C(CCN1CCN(C/C=C/c2ccccc2)CC1)Nc1ccccc1Cl | -47.6 |
| O=C(CN1CCN(c2ccccn2)CC1)Nc1ccc2ccccc2c1 | 4.71 |
| O=C(c1cccc(S(=O)(=O)Nc2cccc(C(F)(F)F)c2)c1)N1CCCCC1 | 10.3 |
| COc1ccc(-n2nc(C(=O)NCC(=O)N(C)Cc3ccccc3)c3ccccc3c2=O)c(OC)c1 | 12.7 |
| CCOc1ccc(N(CC(=O)Nc2ccc(F)c(F)c2)S(=O)(=O)c2c(C)noc2C)cc1 | 2.37 |
| CC(C)(C)c1cc(C(=O)O)n[nH]1 | 1.94 |
| COc1ccc(N/C=C2\C(=O)CCc3c2oc2cc(Cl)c(O)c(Cl)c32)cc1 | 12 |
| COc1ccc(OCC(=O)Nc2ccccc2C(=O)N2CCOCC2)cc1 | 7 |
| Cc1c(C=N)c(O)n(C)c(=O)c1C#N | 10.2 |
| CCCCSP1(=S)NCCCO1 (centres unmarked) | -12.6 |
| Cc1ccc(/C=N/NC(=O)Cn2nnc(N)n2)cc1 | 11.8 |
| CCCn1c(SCC(=O)NCc2ccc(OC)cc2)n[nH]c1=O | -8.92 |
| CN(C)CCNc1nc2c(c(=O)[nH]c(=O)n2C)n1CC(O)COc1ccc(Cl)cc1Cl (centres unmarked) | -30.6 |
| Cc1cccc(COc2ccc(/C=N/NC(=O)c3nnn(-c4nonc4N)c3C)cc2)c1 | 14 |
